# Measured values published in paper PMC4336329 (PLoS ONE, 2015).
# Hit rate of the full screen: of about 310,000 compounds, about 14,000 (4.5%) showed an effect of 50% or more. Effects have a minus sign here. The list shows a part of the results.
# Target: human ether-à-go-go-related gene (hERG) potassium channel (human, UniProt Q12809)
# Experiment: primary screen, population patch clamp on CHO cells stably expressing hERG
# 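Note: peak tail current of the secondary pulse compared with the same well before compound.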
# human ether-à-go-go-related gene (hERG) potassium channel, sequence (Q12809 whole entry, looked up): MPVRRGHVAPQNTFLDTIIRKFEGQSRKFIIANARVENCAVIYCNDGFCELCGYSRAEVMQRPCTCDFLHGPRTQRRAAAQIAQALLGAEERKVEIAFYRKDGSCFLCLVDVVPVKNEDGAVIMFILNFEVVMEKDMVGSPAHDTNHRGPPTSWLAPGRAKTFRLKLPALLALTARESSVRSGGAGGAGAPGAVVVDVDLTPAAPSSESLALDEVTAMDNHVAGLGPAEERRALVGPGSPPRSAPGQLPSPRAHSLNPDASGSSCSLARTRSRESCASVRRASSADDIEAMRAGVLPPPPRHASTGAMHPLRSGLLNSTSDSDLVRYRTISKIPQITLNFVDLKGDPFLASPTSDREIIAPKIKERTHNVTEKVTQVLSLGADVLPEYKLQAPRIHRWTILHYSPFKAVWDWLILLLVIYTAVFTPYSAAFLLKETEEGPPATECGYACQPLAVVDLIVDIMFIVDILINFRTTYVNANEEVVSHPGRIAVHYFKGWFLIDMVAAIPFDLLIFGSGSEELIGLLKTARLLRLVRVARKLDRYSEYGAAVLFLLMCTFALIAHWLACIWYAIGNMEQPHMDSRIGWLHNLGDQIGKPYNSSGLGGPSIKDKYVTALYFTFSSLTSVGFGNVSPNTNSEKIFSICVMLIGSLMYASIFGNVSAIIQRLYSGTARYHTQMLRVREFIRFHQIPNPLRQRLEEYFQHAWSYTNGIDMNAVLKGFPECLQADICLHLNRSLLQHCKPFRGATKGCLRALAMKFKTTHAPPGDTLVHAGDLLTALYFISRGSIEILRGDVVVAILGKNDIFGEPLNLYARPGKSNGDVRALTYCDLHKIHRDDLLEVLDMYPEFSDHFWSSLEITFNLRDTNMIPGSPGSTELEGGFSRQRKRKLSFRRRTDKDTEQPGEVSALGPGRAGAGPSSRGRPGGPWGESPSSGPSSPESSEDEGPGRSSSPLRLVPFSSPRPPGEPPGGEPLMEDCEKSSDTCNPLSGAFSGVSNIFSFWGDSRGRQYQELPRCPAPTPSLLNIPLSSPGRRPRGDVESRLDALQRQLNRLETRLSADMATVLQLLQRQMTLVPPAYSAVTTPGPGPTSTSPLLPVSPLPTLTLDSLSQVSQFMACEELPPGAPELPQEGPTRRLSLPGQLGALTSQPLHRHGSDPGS
row,Compound,"hERG current change (%, negative = inhibition) at 10uM"
1,Cc1ccsc1C(=O)OCC(=O)c1ccc(OC(F)F)cc1,-0.51%
2,COc1cc2nc(CN3CCN(S(=O)(=O)c4ccc(C)c(C)c4)CC3)[nH]c(=O)c2cc1OC,-16.8%
3,CNC(=S)N(CCO)Cc1cc2cc3c(cc2[nH]c1=O)OCO3,24%
4,CC(=O)c1cccc(S(=O)(=O)Nc2c(C)nn(C)c2C)c1,7.46%
5,CCS(=O)(=O)C(=C1NCCO1)S(=O)(=O)CC,-10.7%
6,COc1ccc(C)cc1NC(=O)NC(C)c1ccncc1 (stereo not drawn),10.2%
7,CC1CCCCC1NC(=O)CN1c2cccc3cccc(c23)S1(=O)=O (stereo not drawn),13.2%
8,O=C(CN(c1ccc2c(c1)OCCO2)S(=O)(=O)c1ccccc1)N1CCN(Cc2ccccc2)CC1,-34.7%
9,Cc1cc(Br)ccc1OCCCCNCCO.O=C(O)C(=O)O,-28.1%
10,CC1CCC(C(C)C)C(OC(=O)Cn2c(COc3ccccc3)[n+](C)c3ccccc32)C1.[Cl-] (stereo not drawn),-80.4%
11,O=C(CNCc1ccc(Cl)cc1)Nc1ccc2c(c1)OCCO2.O=C(O)C(=O)O,-9.59%
12,CCc1noc(C)c1C(=O)OCC(=O)NC(C)c1ccccc1 (stereo not drawn),-12.5%
13,CSc1ncccc1C(=O)N1CCCC(Nc2ccc(C)c(C)c2)C1 (stereo not drawn),-4.42%
14,O=Nc1c(-c2ccccc2)[nH]n(-c2ccccc2)c1=O,7.97%
15,CCCc1cc(=O)n2[nH]c(C)cc2n1,-17.3%
16,COc1ccc(N2CCN(C3CCCN(S(=O)(=O)c4ccc(C)cc4C)C3)CC2)cc1 (stereo not drawn),-35.8%
17,O=C(Nc1cccc(S(=O)(=O)N2CCOCC2)c1)[C@@H]1CCCN1S(=O)(=O)c1ccc(Cl)cc1,-62.8%
18,CCOC(=O)N1CCN(C(=O)c2ccc3c(c2)N(Cc2ccc(F)cc2)CCS3)CC1,-46.3%
19,Cc1ccc(Cn2c(=N)c(C(=O)NC3CCCC3)cc3c(=O)n4ccccc4nc32)cc1,-92.7%
20,CN(C)CCCN1CC(C(=O)O)CC1=O (stereo not drawn),13.4%
21,Cc1ccc(N2C(=O)NC(NC(=O)C(C)(C)C)(C(F)(F)F)C2=O)cc1C (stereo not drawn),0.171%
22,CCS(=O)(=O)Nc1c(C(=O)OC)[nH]c2ccccc12,7.76%

row,Compound,"hERG current change (%, negative = inhibition) at 10uM"
1,CC1(C)CC(=O)C=C(c2ccc(Oc3ccccc3)cc2)C1,3.74%
2,Cc1nnc2ccc(-c3ccc(NS(C)(=O)=O)cc3)nn12,-16%
3,Cn1c(=O)n(C)c2cc(N3CCCCC3)c(NC(=O)c3cccc(Cl)c3)cc21,14.8%
4,O=c1[nH]c(-c2ccccc2)cs1,-2.38%
5,CC1CCCN(CC(=O)Nc2cc(S(=O)(=O)N3CCOCC3)ccc2N2CCCC2)C1 (stereo not drawn),-9.54%
6,COC(=O)C1=CN(Cc2ccccc2)C=C(C(=O)OC)C1c1ccc(OC)c(OC)c1,-6.14%
7,Cc1[nH]n(-c2ccccc2)c(=S)c1C=Nc1cccc([N+](=O)[O-])c1,7.1%
8,CCN(CC)C(=O)/C(=C/c1cccc([N+](=O)[O-])c1)NC(=O)c1ccco1,-25.8%
9,CC(=O)c1sc(NC(=O)c2ccccc2C)nc1C,26.2%
10,CCOC(=O)c1nnc(-c2ccc(C)cc2)nc1Sc1ccccc1Cl,11%
11,CCOc1ccc(C(Nc2cccnc2)c2cc(Cl)c3cccnc3c2O)cc1 (stereo not drawn),21.8%
12,O=[N+]([O-])c1ccc(-n2cccn2)c(-c2nn[nH]n2)c1,22.4%
13,O=C(c1ccccc1Br)N1CCN(c2ccc([N+](=O)[O-])c(N3CCOCC3)c2)CC1,-11.5%
14,C=CCn1c(SC(C)C(=O)Nc2ccc(F)c(F)c2F)nnc1C1CC1 (stereo not drawn),-36.8%
15,CN1CCN(CCCN(Cc2ccco2)C(=S)Nc2ccc(Cl)cc2)CC1,-69.6%
16,COc1ccc(OC)c(C2C(C(=O)Nc3cccnc3)=C(C)NC3=C2C(=O)CCC3)c1 (stereo not drawn),9.63%
17,COc1ccc(C2C(=O)c3ccccc3C2=O)cc1,0.785%
18,O=C(CCC(=O)c1ccc[nH]1)c1ccc(Cl)cc1,-5.4%
19,Cc1cc(C)cc(N(C(=O)c2nsc(Cl)c2Cl)C(C(=O)NC2CCCC2)c2ccc(O)cc2)c1 (stereo not drawn),-5.78%
20,O=C(COc1ccccc1[N+](=O)[O-])NCC1(N2CCCCC2)CCCCC1,-43.2%
21,CCCCC(=O)Nc1ccc(C)c(O)c1,11.9%
22,CN(C)CCCNc1oc(-c2ccccc2Cl)nc1S(=O)(=O)c1ccc(F)cc1,-59.9%

row,Compound,"hERG current change (%, negative = inhibition) at 10uM"
1,Cc1cccc(C(=O)NC(=S)N2CCc3ccccc3C2)c1,17.7%
2,CC(C)CC(=O)Nc1nnc(S(=O)(=O)N2CCc3ccccc32)s1,-6.97%
3,CC(CCc1ccccc1)NC(=O)c1ccccc1C(=O)O (stereo not drawn),8.15%
4,O=C(N/N=C/c1ccccn1)c1ccc2nc[nH]c2c1,4.95%
5,Cc1ccnc(NS(=O)(=O)c2cccc3nsnc23)c1.Cl,6.56%
6,Cc1ccccc1-n1c(-c2ccc(Cl)cc2)cnc1SCC(=O)NC1CCS(=O)(=O)C1 (stereo not drawn),-28.7%
7,CCN(C(=O)Cn1cnc2c1c(=O)n(C)c(=O)n2C)C1CCCCC1,3.34%
8,CN(C)c1ccc(-c2nn3c(C4CCCCC4)nnc3s2)cc1,-0.527%
9,CCOC(=O)c1c(NC(=O)CSc2nnc(-c3c[nH]c4ccccc34)n2CCOC)sc2c1CCCCC2,6.17%
10,COc1cc(OC)c(-c2cc(C(=O)O)ccc2OC)c(OC)c1,22.3%
11,COc1ccc(N2CC(C(=O)Nc3cccnc3)CC2=O)cc1 (stereo not drawn),10.1%
12,Cc1ccc(C(=O)Nc2ccccc2-c2ccccc2)cc1S(=O)(=O)Nc1cccc(C)c1C,7.65%
13,Cc1ccc(OCC(O)Cn2c(N3CCCCC3)nc3c2c(=O)[nH]c(=O)n3C)cc1C (stereo not drawn),16%
14,S=c1[nH]c2ccccc2n2cccc12,14.1%
15,Cc1ccc(C(CC(=O)N2CCCC2)c2ccccc2)c(O)c1C (stereo not drawn),-57.9%
16,O=C(N/N=C/c1ccccn1)c1ccc(Br)cc1,-26.8%
17,CCOc1cccc(NC(=O)C(Cc2cccs2)c2nn[nH]n2)c1 (stereo not drawn),4.63%
18,Cc1ccc(C)c(N2N=C(C(=O)Nc3nccs3)CCC2=O)c1,15.5%
19,COc1cc(C(=O)OCC(=O)c2c[nH]c3ccccc23)ccc1OCC(=O)N1CCOCC1,5.92%
20,COc1cc(NC(=O)C2CCCN(S(=O)(=O)c3ccc4c(c3)CCCN4C(C)=O)C2)cc(OC)c1 (stereo not drawn),-17.5%
21,COc1ccc(C(=O)C2CCCN(Cc3cccn3-c3ccccn3)C2)c(OC)c1 (stereo not drawn),-74.6%
22,COc1ccc(OC(=O)c2cccc([N+](=O)[O-])c2)c(C(=O)/C=C/c2cccs2)c1,3.99%

row,Compound,"hERG current change (%, negative = inhibition) at 10uM"
1,COc1ccc(N2CCN(C(=O)CCS(=O)(=O)c3ccc4c(c3)NC(=O)CO4)CC2)cc1,-6.77%
2,COc1ccc(CCNc2ccc(C(CC(N)=O)NC(=O)Cc3cccc4ccccc34)cc2[N+](=O)[O-])cc1 (stereo not drawn),4.29%
3,COc1ccc(/C=C/C(=O)NC(=S)N2CCN(c3ccccn3)CC2)cc1OC,3.87%
4,Cc1ccc(C)c(CN2CCC(CNC(=O)Nc3ccc(F)c(Cl)c3)CC2)c1,-65%
5,COc1cccc(C(C(=O)NC2CCCC2)N(Cc2ccco2)C(=O)c2ccco2)c1OC (stereo not drawn),-2.07%
6,Cc1nn(Cc2ccc(Cl)cc2Cl)c(C)c1NC(=O)Cn1nc([N+](=O)[O-])c(Cl)c1C,1.33%
7,CN(C)c1cccc(C(=O)NNC(=S)NC2CCCC2)c1,20.5%
8,COc1ccc(-c2nc(C)c(C(C)=O)n2O)cc1OC,-1.15%
9,Cn1c(=O)c2c(nc(Br)n2CCSc2nnnn2-c2ccccc2)n(C)c1=O,-25.2%
10,Cc1nc(N)nc2c1CCCC2,13.9%
11,CCOc1ccc(S(=O)(=O)Nc2ccc(OC)nc2)cc1,17.3%
12,COC(=O)Nc1snnc1C,0.262%
13,COc1ccc(CN2CCNC(=O)C2CC(=O)N(C)C2CCOCC2)c(F)c1 (stereo not drawn),10.6%
14,O=C(OCC(=O)N1CCOCC1)c1ccccc1O,24.6%
15,COc1cc(C(=O)OCC(=O)NC2CCCC2)cc(NC(=O)c2ccco2)c1OC,-11.7%
16,CCCc1cc2c(cc1NC(=O)c1ccc(C(C)(C)C)cc1)OCO2,-13.8%
17,O=C(c1cccc(N2CCCC2=O)c1)N1CCC2(CC1)OCCO2,8.83%
18,Cc1ccc(N(Cc2ccc(C(=O)NC3CCCCC3)cc2)S(C)(=O)=O)cc1C,-3.26%
19,Cn1c(=O)c2c(nc(N3CCc4ccccc4C3)n2C)n(C)c1=O,7.62%
20,CCC(=O)NCCc1nc2cc(NC(=O)c3ccc(OC)cc3)ccc2n1C,10.5%
21,CC(C)(C)SC(=O)CC1NS(=O)(=O)OCC1NC(=O)OCC(Cl)(Cl)Cl (stereo not drawn),16.5%
